Repeats are few or missing, and single values can be far off.
Experiments:
CHO-K1 [1] = assay: micronucleus frequency (% of nucleated events); higher = more micronuclei (genotoxic)
CHO-K1 [2] = assay: hypodiploid nuclei frequency (% of nucleated events); higher = more hypodiploid events (aneugenic)
Procedure: (§1)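 Flow-cytometric in vitro micronucleus assay (Litron MicroFlow) in CHO-K1 cells in 96-well plates, 19 concentrations (4.5-200 µM, n=1 per concentration). Without S9, cells were exposed for 24 h and sampled at 48 h. With Aroclor 1254-induced rat liver S9, cells were exposed for 3-4 h and sampled at 27-28 h. Read-outs are %MN and %hypodiploid nuclei relative to nucleated events, and relative survival as the nuclei-to-bead ratio versus the 1% DMSO vehicle control (x100).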

CHO-K1 [3] = assay: relative survival (nuclei to bead ratio vs DMSO control) (% of vehicle control); higher = more surviving cells
Procedure: as §1
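Wherever hypodiploid nuclei frequency (% of nucleated events) is given: hypodiploid nuclei gated on a flow cytometer with 488 nm excitation after SYTOX Green staining, cultures at 37 °C, positive controls vinblastine without S9 and cyclophosphamide with S9.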
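Wherever micronucleus frequency (% of nucleated events) is given: cells lysed with nuclei stained by SYTOX Green, then micronucleus-gated events counted against nucleated events by flow cytometry with 488 nm excitation.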
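Wherever relative survival (nuclei to bead ratio vs DMSO control) is given: Lysed-cell nuclei stained with SYTOX Green and counted against counting beads by flow cytometry at 488 nm excitation, with vinblastine (no S9) and cyclophosphamide (plus S9) as positive controls.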

NC(=Nc1ccccc1)Nc1ccccc1 [1,3-Diphenylguanidine]
Conditions	hypodiploid nuclei frequency, CHO-K1 [2] [%]	micronucleus frequency, CHO-K1 [1] [%]	relative survival, CHO-K1 [3]
concentration: 4.5 (µM), S9 metabolic activation: with S9, exposure time: 3-4 hours	0.32	1.86	131
concentration: 4.5 (µM), S9 metabolic activation: without S9, exposure time: 24 hours	0.4	1.84	135
concentration: 5.63 (µM), S9 metabolic activation: with S9, exposure time: 3-4 hours	0.24	1.08	122
concentration: 5.63 (µM), S9 metabolic activation: without S9, exposure time: 24 hours	0.46	1.54	137
concentration: 7.04 (µM), S9 metabolic activation: with S9, exposure time: 3-4 hours	0.1	1.3	112
concentration: 7.04 (µM), S9 metabolic activation: without S9, exposure time: 24 hours	0.66	1.22	166
concentration: 8.8 (µM), S9 metabolic activation: with S9, exposure time: 3-4 hours	0.2	0.92	100
concentration: 8.8 (µM), S9 metabolic activation: without S9, exposure time: 24 hours	0.52	1.18	135
concentration: 11 (µM), S9 metabolic activation: with S9, exposure time: 3-4 hours	0.38	1.04	103
concentration: 11 (µM), S9 metabolic activation: without S9, exposure time: 24 hours	0.66	1.34	121
concentration: 13.7 (µM), S9 metabolic activation: with S9, exposure time: 3-4 hours	0.1	1.16	104
concentration: 13.7 (µM), S9 metabolic activation: without S9, exposure time: 24 hours	0.56	1.54	139
concentration: 17.2 (µM), S9 metabolic activation: with S9, exposure time: 3-4 hours	0.22	1.12	122
concentration: 17.2 (µM), S9 metabolic activation: without S9, exposure time: 24 hours	0.62	1.3	123
concentration: 21.5 (µM), S9 metabolic activation: with S9, exposure time: 3-4 hours	0.1	1.44	124
concentration: 21.5 (µM), S9 metabolic activation: without S9, exposure time: 24 hours	0.64	1.58	173
concentration: 26.8 (µM), S9 metabolic activation: with S9, exposure time: 3-4 hours	0.24	1.12	161
concentration: 26.8 (µM), S9 metabolic activation: without S9, exposure time: 24 hours	0.66	1.46	108
concentration: 33.6 (µM), S9 metabolic activation: with S9, exposure time: 3-4 hours	0.22	1.06	136
concentration: 33.6 (µM), S9 metabolic activation: without S9, exposure time: 24 hours	0.74	1.4	135
concentration: 41.9 (µM), S9 metabolic activation: with S9, exposure time: 3-4 hours	0.24	1.26	103
concentration: 41.9 (µM), S9 metabolic activation: without S9, exposure time: 24 hours	0.86	1.72	125
concentration: 52.4 (µM), S9 metabolic activation: with S9, exposure time: 3-4 hours	0.32	1.38	119
concentration: 52.4 (µM), S9 metabolic activation: without S9, exposure time: 24 hours	0.64	1.6	137
concentration: 65.5 (µM), S9 metabolic activation: with S9, exposure time: 3-4 hours	0.2	1	133
concentration: 65.5 (µM), S9 metabolic activation: without S9, exposure time: 24 hours	0.82	1.88	135
concentration: 81.9 (µM), S9 metabolic activation: with S9, exposure time: 3-4 hours	0.24	1.1	120
concentration: 81.9 (µM), S9 metabolic activation: without S9, exposure time: 24 hours	0.82	1.96	156
concentration: 102 (µM), S9 metabolic activation: with S9, exposure time: 3-4 hours	0.22	0.88	119
concentration: 102 (µM), S9 metabolic activation: without S9, exposure time: 24 hours	1.04	2	133
concentration: 128 (µM), S9 metabolic activation: with S9, exposure time: 3-4 hours	0.18	1.34	110
concentration: 128 (µM), S9 metabolic activation: without S9, exposure time: 24 hours	0.98	2.6	110
concentration: 160 (µM), S9 metabolic activation: with S9, exposure time: 3-4 hours	0.24	1.1	110
concentration: 160 (µM), S9 metabolic activation: without S9, exposure time: 24 hours	1.28	3.04	112
concentration: 200 (µM), S9 metabolic activation: with S9, exposure time: 3-4 hours	0.28	1.22	132
concentration: 200 (µM), S9 metabolic activation: without S9, exposure time: 24 hours	1.34	3.06	91.9

Reference: the supplement of paper PMC9151546
